This is one part of the list.
T1: UNK ZnF1-3 (human, UniProt Q9C0B0 31-174)
T1 sequence: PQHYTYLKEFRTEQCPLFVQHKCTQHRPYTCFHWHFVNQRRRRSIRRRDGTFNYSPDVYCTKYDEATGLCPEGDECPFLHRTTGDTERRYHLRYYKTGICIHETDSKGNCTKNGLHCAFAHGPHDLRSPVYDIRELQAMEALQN

B1: chr5:146773406:146773407:-_ENSG00000113657_ENST00000343218|hu_mus|FALSE|FALSE (ssRNA)
RNA: GGGAGUUCUACAGUCCGACGAUCGAUCGCAUGCAUGUAAGUGGGGGUGGGGUGGGGGUGGGGUUCAAAGAAAUUGAGAGUAUGCAAAAACAGAAACCAAAGCAAUUCAUAAAGCUAGGCAAGCGAGCAUAACAUUGGGAAACACAACAGAGGAUUGAGCAUCA
B2: chr18:67805652:67805653:+_ENSMUSG00000024537_ENSMUST00000025418|mus_mus|FALSE|FALSE (ssRNA)
RNA: GGGAGUUCUACAGUCCGACGAUCGUACUUAAUAAAGAUGGACCUUAACUGAAGCACCACUAGCUUCUUUGACGGUAAGGAAUACACUUCAGUAUUUAUACUGAGCUCAUUUGAAUUUUCUUCUUCAGUUGCAUAUGGAUUGUUCAACAGAGGAUUGAGCAUCA
B3: chr1:65217810:65217811:-_ENSMUSG00000025950_ENSMUST00000097709|mus_hu|motif|central (ssRNA)
RNA: GGGAGUUCUACAGUCCGACGAUCAGCUUCUGCAGCAUCCUUGGUGACUUGGUCGUUGGUGGCAUCACGAUUCUCGGUGCCGGAAUCAUAGCUAUGUAGAUCCAAUUCCACGUAGGGAAAAAUGAGUUUCUCUUUAAUCAAUUCCAACAGAGGAUUGAGCAUCA
B4: chr3:87734452:87734453:+_ENSMUSG00000048039_ENSMUST00000055984|mus_hu|FALSE|FALSE (ssRNA)
RNA: GGGAGUUCUACAGUCCGACGAUCCCGGAAGCGUCCGGAGCCGGAUGCGGAAAUCGGUGCGCGCCGACGAAGCCCGGGAAGGCAGGCGCGCGGGUUAGAACGCGCCAGAGGUCGGCGCGCGCACACCCGCACCGCCCCGACCCCCAACAGAGGAUUGAGCAUCA
B5: chr12:39756943:39756944:-_ENSG00000139116_ENST00000544797|hu_mus|FALSE|FALSE (ssRNA)
RNA: GGGAGUUCUACAGUCCGACGAUCGGUUUGGCUGUUACCCCCAAGGGAAUCCUGCAAGAGUCUUGUCAGCUUAGAGUCUCUGUAAGGGACAUGGGUGGCUCUCUUGCUCUUGUCCCCCAAGGCGCUGAUUACAUUCCCAAGAGCCAACAGAGGAUUGAGCAUCA
B6: chr1:182352875:182352876:-_ENSG00000135821_ENST00000339526|hu_mus|FALSE|FALSE (ssRNA)
RNA: GGGAGUUCUACAGUCCGACGAUCAUCCACACAUCCAUAUAUAUAUAACUUUUUUGUUUUUAACAUUUAAAUAUAAAAAUACUACUCUGCUUUGUGUUAUGAACGGAGGACCAAGAAAUGCCAACUUUUUUCUUCCUUCACAGUCAACAGAGGAUUGAGCAUCA

Target: T1, UNK ZnF1-3
Assay: nsRBNS (natural sequence RNA bind-n-seq); RBNS binding buffer (assumed for nsRBNS): 25 mM Tris pH 7.5, 150 mM KCl, 3 mM MgCl2, 0.01% Triton X-100, 500 ug/ml BSA, 20 U/ml SUPERase-In, 4 C; UNK is unkempt and MSI1 is Musashi-1; names of the RNAs are library labels; protein concentration not given here; high values mean tight binding

Row | Binder | binding signal
1 | B1 | 1.86 enrichment R
2 | B2 | 0.639 enrichment R
3 | B3 | 1.06 enrichment R
4 | B4 | 0.351 enrichment R
5 | B5 | 0.773 enrichment R
6 | B6 | 2.48 enrichment R

Reference: article PMC12136788
